This data set is described as follows: xn = mol fraction of the nth substance listed. The note with it: 298.15 K, 101.3 kPa.

Consider 6 compounds from a compilation of properties of binary mixtures (doi:10.1021/je100671v).

Some of these densities may be calculated back from excess volumes.

As to `CCCCCCCC(=O)[O-].c1c[nH+]c[nH]1` + CC#N, the mass density is recorded as 987 kg/m3 (x2 = 0); 988.1 kg/m3 (x2 = 0.1044); 985.2 kg/m3 (x2 = 0.1986); 978.9 kg/m3 (x2 = 0.298); 969.6 kg/m3 (x2 = 0.4005); 957.9 kg/m3 (x2 = 0.499). The mass density was determined as 942.5 kg/m3 (x2 = 0.5995), 923 kg/m3 (x2 = 0.6924), 891.6 kg/m3 (x2 = 0.7988) and 846.7 kg/m3 (x2 = 0.8996).
On to `CCCCCCCC(=O)[O-].c1c[nH+]c[nH]1` + CCO, for which the mass density reads like this: (x2 = 0) 987 kg/m3; (x2 = 0.1043) 981.6 kg/m3; (x2 = 0.1984) 976.3 kg/m3; (x2 = 0.301) 970.1 kg/m3; (x2 = 0.4) 962.7 kg/m3; (x2 = 0.4786) 954.6 kg/m3. Besides, the mass density was 938.1 kg/m3 (x2 = 0.5999), 918.8 kg/m3 (x2 = 0.7006) and 891.8 kg/m3 (x2 = 0.7999).
Regarding `CCCCCCCC(=O)[O-].c1c[nH+]c[nH]1` + O, the mass density is 987 kg/m3 (x2 = 0); 987.9 kg/m3 (x2 = 0.0989); 988.8 kg/m3 (x2 = 0.1964); 990 kg/m3 (x2 = 0.3042); 991.7 kg/m3 (x2 = 0.4091); 996.6 kg/m3 (x2 = 0.6017). Further, the mass density (x2 = 0.6643) was found to be 998.6 kg/m3 and the mass density (x2 = 0.8154) is reported as 1002.9 kg/m3.
Consider `CCCCCCCC(=O)[O-].c1c[nH+]c[nH]1` + CCCCCCCCO, for which the mass density reads like this: (x2 = 0) 987 kg/m3; (x2 = 0.1011) 974.4 kg/m3; (x2 = 0.1999) 961.2 kg/m3; (x2 = 0.2991) 947 kg/m3; (x2 = 0.6999) 881.8 kg/m3; (x2 = 0.799) 863.9 kg/m3.
Regarding `CCCCCCCCO` + c1c[nH+]c[nH]1.CCCCCCCC(=O)[O-], the mass density (x1 = 1) is on record as 824.5 kg/m3.
On the same count and under the same terms, the result for `CCO` + c1c[nH+]c[nH]1.CCCCCCCC(=O)[O-] reads 790 kg/m3.

One may read the mass density as mass per unit of volume.
